# The list shows a part of the results.
# Tests used:
# Test in all cases: glycan array binding signal (z-score within array); higher = stronger binding
# Conditions in all cases: glycan notation: IUPAC condensed, linker removed
# [1] = target: Neu5Ac(a2-6)GlcNAc(b1-4)GlcNAc
# In short: (§1)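 Glycan array binding is given as a within-array Z-score, which can be read as non-binding when negative. The arrays, 3228 of them, came from the Consortium for Functional Glycomics database and were retained only where the protein sequence was available. Z-scores were averaged across arrays of the same protein sequence at different concentrations or buffers and across linkers.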
# [2] = target: Neu5Ac(a2-6)GlcNAc(b1-4)GlcNAc(b1-4)GlcNAc
# In short: as §1
# Neu5Ac(a2-8)Neu5Ac = target: Neu5Ac(a2-8)Neu5Ac
# In short: as §1
# [3] = target: Neu5Ac(a2-8)Neu5Ac(a2-3)Gal(b1-3)GalNAc(b1-4)[Neu5Ac(a2-3)]Gal(b1-4)Glc
# In short: as §1
# [4] = target: Neu5Ac(a2-8)Neu5Ac(a2-3)Gal(b1-3)GalNAc(b1-4)[Neu5Ac(a2-8)Neu5Ac(a2-3)]Gal(b1-4)Glc
# In short: as §1
# [5] = target: Neu5Ac(a2-8)Neu5Ac(a2-3)Gal(b1-4)Glc
# In short: as §1
# [6] = target: Neu5Ac(a2-8)Neu5Ac(a2-3)Gal(b1-4)GlcNAc
# In short: as §1
# [7] = target: Neu5Ac(a2-8)Neu5Ac(a2-3)[Gal(b1-3)GalNAc(b1-4)]Gal(b1-4)Glc
# In short: as §1
# [8] = target: Neu5Ac(a2-8)Neu5Ac(a2-3)[GalNAc(b1-4)]Gal(b1-4)Glc
# In short: as §1
# [9] = target: Neu5Ac(a2-8)Neu5Ac(a2-8)Neu5Ac
# In short: as §1
# [10] = target: Neu5Ac(a2-8)Neu5Ac(a2-8)Neu5Ac(a2-3)Gal(b1-4)Glc
# In short: as §1
# [11] = target: Neu5Ac(a2-8)Neu5Ac(a2-8)Neu5Ac(a2-3)[Gal(b1-3)GalNAc(b1-4)]Gal(b1-4)Glc
# In short: as §1
# [12] = target: Neu5Ac(a2-8)Neu5Ac(a2-8)Neu5Ac(a2-3)[GalNAc(b1-4)]Gal(b1-4)Glc
# In short: as §1
# [13] = target: Neu5Ac(a2-8)Neu5Ac(a2-8)Neu5Ac(a2-8)Neu5Ac(a2-3)[GalNAc(b1-4)]Gal(b1-4)Glc
# In short: as §1
# [14] = target: Neu5Ac(a2-8)Neu5Gc(a2-3)Gal(b1-4)GlcNAc
# In short: as §1
# [15] = target: Neu5Ac(b2-6)Gal(b1-4)GlcNAc
# In short: as §1
# Neu5Ac(b2-6)GalNAc = target: Neu5Ac(b2-6)GalNAc
# In short: as §1
# [16] = target: Neu5Ac9Ac(a2-3)Gal(b1-3)GlcNAc
# In short: as §1
# [17] = target: Neu5Ac9Ac(a2-3)Gal(b1-4)GlcNAc
# In short: as §1
# [18] = target: Neu5Ac9Ac(a2-6)Gal(b1-4)GlcNAc
# In short: as §1
# [19] = target: Neu5Gc(a2-3)Gal(b1-3)GlcNAc
# In short: as §1
# [20] = target: Neu5Gc(a2-3)Gal(b1-3)[Fuc(a1-4)]GlcNAc
# In short: as §1
# Neu5Gc(a2-3)Gal(b1-4)Glc = target: Neu5Gc(a2-3)Gal(b1-4)Glc
# In short: as §1
# [21] = target: Neu5Gc(a2-3)Gal(b1-4)GlcNAc
# In short: as §1
# [22] = target: Neu5Gc(a2-3)Gal(b1-4)GlcNAc(b1-3)Gal(b1-4)GlcNAc(b1-2)Man(a1-3)[Neu5Gc(a2-3)Gal(b1-4)GlcNAc(b1-3)Gal(b1-4)GlcNAc(b1-2)Man(a1-6)]Man(b1-4)GlcNAc(b1-4)GlcNAc
# In short: as §1
# [23] = target: Neu5Gc(a2-3)Gal(b1-4)[Fuc(a1-3)]GlcNAc
# In short: as §1
# [24] = target: Neu5Gc(a2-6)Gal(b1-4)GlcNAc
# In short: as §1
# Neu5Gc(a2-6)GalNAc = target: Neu5Gc(a2-6)GalNAc
# In short: as §1
# [25] = target: Neu5Gc(a2-8)Neu5Ac(a2-3)Gal(b1-4)GlcNAc
# In short: as §1
# [26] = target: Neu5Gc(a2-8)Neu5Gc(a2-3)Gal(b1-4)GlcNAc
# In short: as §1
# [27] = target: Neu5Gc(a2-8)Neu5Gc(a2-3)Gal(b1-4)GlcNAc(b1-3)Gal(b1-4)GlcNAc
# In short: as §1
# [28] = target: Neu5Gc(a2-8)Neu5Gc(a2-6)Gal(b1-4)GlcNAc
# In short: as §1
# [29] = target: Neu5Gc(b2-6)Gal(b1-4)GlcNAc
# In short: as §1
binder,measurement,setting,value
"AT1G15820(2) (Arabidopsis thaliana), Q9LMQ2 (protein) MAMAVSGAVLSGLGSSFLTGGKRGATALASGVGTGAQRVGRKTLIVAAAAAQPKKSWIPAVKGGGNFLDPEWLDGSLPGDFGFDPLGLGKDPAFLKWYREAELIHGRWAMAAVLGIFVGQAWSGVAWFEAGAQPDAIAPFSFGSLLGTQLLLMGWVESKRWVDFFNPDSQSVEWATPWSKTAENFANYTGDQGYPGGRFFDPLGLAGKNRDGVYEPDFEKLERLKLAEIKHSRLAMVAMLIFYFEAGQGKTPLGALGL",glycan array binding signal (z-score),[1],0.061
same,glycan array binding signal (z-score),[2],-0.681
same,glycan array binding signal (z-score),Neu5Ac(a2-8)Neu5Ac,0.538
same,glycan array binding signal (z-score),[3],-0.073
same,glycan array binding signal (z-score),[4],-0.082
same,glycan array binding signal (z-score),[5],-0.326
same,glycan array binding signal (z-score),[6],0.01
same,glycan array binding signal (z-score),[7],-0.444
same,glycan array binding signal (z-score),[8],-0.224
same,glycan array binding signal (z-score),[9],-0.275
same,glycan array binding signal (z-score),[10],-0.403
same,glycan array binding signal (z-score),[11],-0.105
same,glycan array binding signal (z-score),[12],0.36
same,glycan array binding signal (z-score),[13],-0.097
same,glycan array binding signal (z-score),[14],-0.31
same,glycan array binding signal (z-score),[15],-0.408
same,glycan array binding signal (z-score),Neu5Ac(b2-6)GalNAc,-0.533
same,glycan array binding signal (z-score),[16],-0.048
same,glycan array binding signal (z-score),[17],-0.225
same,glycan array binding signal (z-score),[18],-0.146
same,glycan array binding signal (z-score),[19],0.101
same,glycan array binding signal (z-score),[20],-0.541
same,glycan array binding signal (z-score),Neu5Gc(a2-3)Gal(b1-4)Glc,0.484
same,glycan array binding signal (z-score),[21],0.408
same,glycan array binding signal (z-score),[22],0.352
same,glycan array binding signal (z-score),[23],-0.017
same,glycan array binding signal (z-score),[24],-0.071
same,glycan array binding signal (z-score),Neu5Gc(a2-6)GalNAc,-0.271
same,glycan array binding signal (z-score),[25],-0.522
same,glycan array binding signal (z-score),[26],-0.719
same,glycan array binding signal (z-score),[27],-0.274
same,glycan array binding signal (z-score),[28],-0.382
same,glycan array binding signal (z-score),[29],-0.566
